# Experimental data reported in PubChem BioAssay AID2451 (National Center for Advancing Translational Sciences (NCATS), 2010).
# Screen size: about 290,000 compounds; about 2,100 (0.72%) were called active. Inconclusive means that the source gave no clear call. Such entries were picked first, then a sample of the others. Calls come from the whole dose curve; as a rule, active = well fitted inhibition curve with a large enough effect; inconclusive = small, poorly fitted or top-dose-only effect, or effect the other way; inactive = flat fitted curve, though single readings scatter. Where the call is inconclusive, the potency comes from a doubtful curve fit.
# Target: Fructose-bisphosphate aldolase (Giardia intestinalis (strain ATCC 50803 / WB clone C6)) (UniProt A8B2U2)
# UniProt A8B2U2, sequence (A8B2U2 whole entry, looked up): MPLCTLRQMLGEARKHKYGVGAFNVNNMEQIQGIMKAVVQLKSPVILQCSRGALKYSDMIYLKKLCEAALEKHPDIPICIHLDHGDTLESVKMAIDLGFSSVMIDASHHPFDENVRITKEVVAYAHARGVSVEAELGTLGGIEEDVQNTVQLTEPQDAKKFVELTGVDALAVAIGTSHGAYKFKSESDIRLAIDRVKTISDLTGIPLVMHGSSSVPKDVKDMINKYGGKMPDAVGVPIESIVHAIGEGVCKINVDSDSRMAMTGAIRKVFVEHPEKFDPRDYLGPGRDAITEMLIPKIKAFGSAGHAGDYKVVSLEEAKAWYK
# Test: qHTS Assay for Inhibitors of Fructose-1,6-bisphosphate Aldolase from Giardia Lamblia; note: nearly all actives have a fitted effect of over 55% in size
# Details: purified Giardia FBPA; activity, negative = inhibition: at 59.6 µM (top of the series) unless noted
# In short: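 40 nM FBPA preincubated 10 min at RT with compound (up to 57.5 uM final), then substrate plus GAPDH/TPI/NAD/arsenate coupling and diaphorase/resazurin added. Fluorescence read after 20 min at RT, 525/598 nm.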
# % is set by controls: 0 for no effect and ±100 for the full control effect; potency is the fitted concentration of half-maximal effect; tags give direction and shape of the fitted curve.
SMILES,Potency,"activity, negative = inhibition"
Cn1cnnc1SCC(=O)c1ccc(O)c(O)c1,"inconclusive: 15.8 µM [inhibitor, partial curve]",
COc1ccc(NS(=O)(=O)c2c(C)[nH]c(C)c2C(=O)N2CCCCC2)cc1Cl,,inconclusive: 56.6% [activator]
CCN(CC)CCCN1C(=O)C(O)=C(C(=O)c2cc3ccccc3o2)C1c1ccccn1 (configuration not stated),,inactive: 6.77%
CC(CN1CCCC1)OC(=O)C(c1ccccc1)c1ccccc1 (configuration not stated),"inconclusive: 28.2 µM [inhibitor, single point]",
CCOC(=O)c1c(C)oc2c1C(=O)c1ccccc1C2=O,"inconclusive: 0.316 µM [inhibitor, full curve]",
Cc1cc(C)c(S(=O)(=O)Nc2ccc(O)c(Sc3ncn[nH]3)c2)c(C)c1,"inconclusive: 15.8 µM [inhibitor, partial curve]",
Cc1noc(NS(=O)(=O)c2ccc(NC(=O)CSc3nnc(-c4ccccc4)n3C3CCCCC3)cc2)c1C,"inconclusive: 19.9 µM [activator, single point]",
O=C(NCc1ccco1)c1ccc(CS(=O)(=O)Cc2ccc(Cl)cc2)o1,"inconclusive: 6.29 µM [activator, single point]",
COc1cc(C(=O)c2nccc3cc(OC)c(OC)cc23)c([N+](=O)[O-])cc1OC,"inconclusive: 0.281 µM [inhibitor, full curve]",
COCCN(C(=O)Cc1cccs1)C(C(=O)NC1CCCC1)c1ccc(OC)c(OC)c1 (configuration not stated),,inactive: 4.27%
CCOc1ccc(N2Cc3ccccc3C2)cc1,"inconclusive: 7.06 µM [inhibitor, partial curve]",
Fc1ccc(CNC2CN3CCC2CC3)cc1 (configuration not stated),"inconclusive: 28.2 µM [inhibitor, partial curve]",
Cc1ccnc(-n2sc3ccccc3c2=O)n1,"inconclusive: 17.7 µM [inhibitor, partial curve]",
Cc1ccc(OCCCCNC2CCCC(C)C2C)c(C)c1 (configuration not stated),"inconclusive: 19.9 µM [inhibitor, partial curve]",
N#Cc1c(Nc2ccccc2)c(C=NCCN2CCOCC2)c[nH]c1=O,"inconclusive: 19.9 µM [inhibitor, single point]",
CCOC(=O)c1sc(NC(=S)NC(=O)c2ccccc2)nc1C,"inconclusive: 12.6 µM [inhibitor, partial curve]",
Cc1cc(NS(=O)(=O)c2ccc(NC(=S)NC(=O)c3ccc(Cl)cc3Cl)cc2)no1,"inconclusive: 8.91 µM [inhibitor, partial curve]",
CCCCC/C=C\C/C=C\C/C=C\C/C=C\CCCCCC(=O)NCCCC(=O)O,,inactive: -1.26%
O=C(NCc1ccccc1)Nc1cccn(Cc2ccccc2Cl)c1=O,"inconclusive: 17.7 µM [inhibitor, single point]",
Cc1cc(C)n2c(=S)[nH]nc2n1,active: 2.23 µM,
CN(C)c1ccc(NC(=O)CSc2nc3c(c(=O)[nH]2)CCCC3)cc1,"inconclusive: 17.7 µM [inhibitor, single point]",
OC(CNCCC(c1ccccc1)c1ccccc1)COc1ccccc1 (configuration not stated),,inactive: 3.42%
COC(=O)c1cccc2nc3c(C(C)O)cccc3nc12 (configuration not stated),"inconclusive: 19.9 µM [inhibitor, single point]",
Cc1coc2c1C(=O)C(=O)c1c-2ccc2c(C)cccc12,active: 1.26 µM,

SMILES,Potency,"activity, negative = inhibition"
NNc1nc(C(F)(F)F)nc2ccccc12,"inconclusive: 17.7 µM [inhibitor, partial curve]",
Clc1ccccc1Nc1nnc(-c2ccncc2)s1,,inactive: -0.263%
N#CCC(=O)Nc1sc2c(c1C(N)=O)CCCC2,"inconclusive: 5 µM [inhibitor, single point]",
COc1cc(OC)c(OC)cc1CN1CCCC(C(=O)c2ccccc2SC)C1 (configuration not stated),,inactive: -0.994%
C(=C\c1ccc2ccccc2n1)/c1ccccc1,"inconclusive: 22.3 µM [inhibitor, partial curve]",
C=CCN1C(=O)N/C(=C/c2ccc(C)o2)C1=O,active: 15.8 µM,
COc1cccc(C2C3CN(C)CC=C3C(C#N)=C(N)C2(C#N)C#N)c1OC (configuration not stated),"inconclusive: 15.8 µM [inhibitor, partial curve]",
COc1cc(OC)c(C2CC(=O)N3CN(c4ccccc4)CSC3=C2C#N)cc1OC (configuration not stated),"inconclusive: 1.58 µM [inhibitor, partial curve]",
CCN(c1ccccc1)S(=O)(=O)c1ccc(C(=O)Nc2nnc(C3CC3)o2)cc1,active: 8.89 µM,
COc1cccc2c1C(=O)C=C(C)C2=O,"inconclusive: 0.501 µM [inhibitor, full curve]",
Cc1onc(-c2c(Cl)cccc2Cl)c1C(=O)NC(=S)N1CCOCC1,active: 3.97 µM,
COc1cccc(N=Nc2c(=O)[nH]n3c(=O)c4c([nH]c23)CCC4)c1,"inconclusive: 12.6 µM [inhibitor, partial curve]",
CCCCCn1c(=O)c(C(=O)NCc2ccccn2)c(O)c2ccccc21,"inconclusive: 31.5 µM [inhibitor, single point]",
Cc1ccc(C)c2[nH]c(=O)c(C(c3nnnn3Cc3ccco3)N3CCc4ccccc4C3)cc12 (configuration not stated),"inconclusive: 15.8 µM [inhibitor, partial curve]",
CC(C)CCNCC(=O)NC(c1ccccc1)c1ccccc1,"inconclusive: 22.3 µM [inhibitor, partial curve]",
COc1cc(/C=N/NC(=O)c2cccc(NC(=O)c3ccccc3C)c2)ccc1O,,inactive: 0.014%
COc1cc(/C=C2/C(=O)NN(c3cccc(C)c3)C2=O)ccc1OC(=O)c1ccco1,,inactive: -1.12%
C=CCN(CC=C)CCOc1ccc(OC(C)C)cc1,"inconclusive: 17.7 µM [inhibitor, partial curve]",
Cc1cc(-c2ccc(C(C)C)c(S(=O)(=O)Nc3ccccn3)c2)on1,"inconclusive: 31.6 µM [inhibitor, single point]",
N=C1/C(=C/c2coc3ccccc3c2=O)C(=O)N=C2SC(c3ccco3)=NN12,active: 15.8 µM,
C/C(=C\C(=S)Nc1ccccc1)Nc1ccc2ccccc2c1,active: 1.99 µM,
CN(C)c1ccc(NC2=C(Cl)C(=O)c3ccccc3C2=O)cc1,"inconclusive: 1.99 µM [inhibitor, full curve]",
Cc1cc[n+](C2=C([O-])c3ccccc3C(=O)/C2=N\S(=O)(=O)c2cccs2)cc1C,"inconclusive: 0.141 µM [inhibitor, full curve]",
CCOc1cc(/C=C2\C(=O)N(Cc3ccco3)C(C)=C2C(=O)OC)ccc1O,"inconclusive: 15.8 µM [inhibitor, single point]",

SMILES,Potency,"activity, negative = inhibition"
O=C1OC(Nc2cc(Br)cc3cccnc23)c2ccccc21 (configuration not stated),"inconclusive: 7.06 µM [inhibitor, partial curve]",
Cc1nn(C)cc1/C=N/NC(=O)c1ccc2c(c1)OCO2,,inactive: 1.43%
CCN(CC(=O)NC(=O)NC1CCCCC1)Cc1nc2ccccc2c(=O)[nH]1,"inconclusive: 5 µM [inhibitor, full curve, poor fit]",
Cc1c(NN=C(C#N)C#N)c(=O)n(-c2ccccc2)n1C,active: 25.1 µM,
CCCCOc1cc(C(=O)NCCN(CC)CC)c2ccccc2n1,inactive,
COc1ccc2c(Cl)c(C(=O)N/N=C/c3c(C)[nH]c4ccccc34)sc2c1,,inactive: 0.218%
Cc1ccc(C(=O)Nc2sc(C)c(-c3ccccc3)c2C(N)=O)cc1[N+](=O)[O-],,inactive: 7.72%
CC(C)c1nc(CNC(=O)C2CCC(=O)N(CCc3ccc(Cl)cc3)C2)no1 (configuration not stated),,inactive: -2.67%
CN1C(=O)C(Cc2cccc3ccccc23)C(=O)N(C)C1=O,"inconclusive: 14.1 µM [inhibitor, partial curve]",
COc1ccc(NC(=O)C/C(C)=N/NC(=O)c2ccccn2)c(OC)c1,,inactive: 18.8%
Cc1nnc(SCC(=O)NCc2ccc(F)cc2)[nH]c1=O,"inconclusive: 19.9 µM [inhibitor, single point]",
O=C(c1ccc(COc2ccccc2Cl)o1)N1CCN(c2ccccc2)CC1,,inactive: 0.593%
COc1ccccc1-n1c(C)c2c(OC)cccc(=O)c2c1C,,inactive: -10.6%
Cc1nc2nc(SCC(=O)Nc3cccc(F)c3)[nH]c2cc1Br,"inconclusive: 12.6 µM [inhibitor, partial curve]",
CCOc1cc(C(c2c(C)[nH][nH]c2=O)c2c(C)[nH][nH]c2=O)ccc1OC(=O)c1cccc([N+](=O)[O-])c1,"inconclusive: 9.98 µM [inhibitor, partial curve]",
Cc1ccc(CN2CCN(c3ccccc3)CC2)o1,"inconclusive: 17.8 µM [inhibitor, partial curve]",
CCC(=O)OCCNc1cc(Sc2nc3ccccc3s2)c2nonc2c1[N+](=O)[O-],"inconclusive: 1.26 µM [inhibitor, partial curve]",
CC1CCN(CC#CCOc2ccc(Cl)cc2)CC1,"inconclusive: 17.8 µM [inhibitor, partial curve]",
CCc1cc2c(CN3CCN(Cc4ccccc4)CC3)cc(=O)oc2cc1O,"inconclusive: 20 µM [inhibitor, partial curve]",
COc1ccc(C(=O)Cc2nnc(C)s2)c(OC)c1,"inconclusive: 15.8 µM [inhibitor, partial curve]",
CC1=NN=C(c2ccc(N)cc2)c2cc3c(cc2C1)OCO3,"inconclusive: 39.7 µM [inhibitor, partial curve]",
COc1ccc(C(=O)N/N=C/c2ccccn2)cc1OC,active: 15.8 µM,
CC(=O)c1cc2c(O)c(O)ccc2o1,"inconclusive: 14.1 µM [inhibitor, partial curve]",
CSc1nc(N(CCO)CCO)c2sc3nc(-c4ccco4)c4c(c3c2n1)CCC4,"inconclusive: 15.8 µM [inhibitor, partial curve]",
